Measurements taken from patent US20180155419A1, “ANTI-MIF ANTIBODIES IN THE TREATMENT OF CANCERS CONTAINING MUTANT TP53 AND/OR MUTANT RAS” (Baxalta GmbH, priority 2015, published 2018).

What was measured:
[1] = system: IGROV-1 human ovarian cancer cells; test: Xenograft model of ovarian cancer, IGROV-1 luciferase cells, bioluminescence; format: in vivo, Nude mice; conditions: 60 mg/kg i.p. every other day from week 4; measured in 4th, 5th and 6th week; IGROV-1 (KRAS wild-type, p53 Y126C)
Protocol: FIG. 2: Tumor measurements in a xenograft model of ovarian cancer based on inhibition of IGROV-1 cells stably expressing the luciferase reporter gene. IGROV-1 human ovarian cancer cells (containing a wild-type KRAS gene, and containing a mutant TP53 gene encoding a p53 Y126C mutation) stably expressing the luciferase reporter gene were implanted on day 0. […] The treatment was carried out every other day. In the 4th, 5th and 6th week after injection of the tumor cells, the tumors were assessed by measuring luciferase activity (total flux in photons per second, p/s) (FIG. 2B).
In order to further confirm the effects of anti-MIF antibodies in the treatment of cancers containing mutations of TP53, a xenograft model of ovarian cancer based on inhibition of IGROV-1 human ovarian cancer cells (containing a wild-type KRAS gene, and containing a mutant TP53 gene encoding a p53 Y126C mutation) stably expressing the luciferase reporter gene was used. Nude mice were injected i.p. with 1×10^7 IGROV-1 luciferase cells. Prior to start of the treatment protocol, animals were assessed for equal tumor burden and randomized into the respective treatment arms.
Measuring luciferase activity: At different time points following cancer cells injection or antibody treatment, tumor growth and spread were monitored by Bioluminescent Assay. […]

AKT = test: Phosphorylation of AKT in starved PC3 cells (western blot); format: cell-based, human; conditions: starved PC3 cells (K-ras G12V, TP53 deletion), 10% FCS, 10 nM recombinant MIF, 100 nM antibody; versus untreated or control antibody
Protocol: (§1) FIG. 1: Anti-oxMIF inhibits phosphorylation of ERK and AKT in vitro. […] Cell lysates were separated by SDS-PAGE and blotted on nitrocellulose membranes, and the phosphorylated forms of ERK1/2 (FIG. 1A) or AKT (FIG. 1B) were visualized with phosphor-specific antisera. The total levels of the enzymes were determined by using antisera that recognized all forms of the enzymes and were visualized as a loading control.
(§2) Cell lysates were separated by SDS-PAGE and blotted on nitrocellulose membranes, and the phosphorylated forms of ERK1/2 (FIG. 1A) or AKT (FIG. 1B) were visualized with phosphor-specific antisera. The total levels of the enzymes were determined by using antisera that recognized all forms of the enzymes and were visualized as a loading control. […] Mutant K-ras protein activates ERK1/2 and AKT through a cascade that leads to ERK1/2 and AKT phosphorylation.

ERK1/2 = test: Phosphorylation of ERK1/2 in starved PC3 cells (western blot); format: cell-based, human; conditions: starved PC3 cells (K-ras G12V, TP53 deletion), 10% FCS, 10 nM recombinant MIF, 100 nM antibody; versus untreated or control antibody
Protocol: as §1, §2

[2] = system: Human prostate adenocarcinoma PC3 cells; test: PC3 prostate cancer xenograft, tumor volume; format: in vivo, Mf1 nude mice; conditions: 5 or 15 mg/kg intraperitoneally every other day; compared to the control antibody
Protocol: (§3) FIG. 3: Tumor volume (FIG. 3D) and intratumoral levels of the cytokines, II-6 (FIG. 3B), II-8 (FIG. 3A) and GRO-alpha (FIG. 3C) were analyzed for tumors from a PC3 prostate cancer xenograft in vivo model after treatment with the indicated antibodies. The data shown represent the mean.
(§4) Human prostate adenocarcinoma PC3 cells (containing a mutant KRAS gene encoding a K-ras G12V mutation, and containing a deletion mutation in the TP53 gene) were harvested from exponentially growing cultures, mixed with growth factor-depleted matrigel and inoculated subcutaneously into the right flank of Mf1 nude mice (2×10^6 cells in 0.25 mL Matrigel/mouse, n=10/group). On the next day the antibody treatment was started (5 or 15 mg/kg intraperitoneally every other day). On day 7 after cell injection, the size of tumor xenograft was started to be measured and volume was calculated using the formula V=0.5 x a x b^2 (where “a” is the longest diameter; “b” is the shortest diameter. After termination of the experiment, tumors were excised, flash frozen and homogenized in lysis buffer. Cleared lysates were analyzed by multiplex immunoassays.

II-6 = test: PC3 prostate cancer xenograft, intratumoral II-6 by multiplex immunoassay; format: in vivo, Mf1 nude mice; conditions: 5 or 15 mg/kg intraperitoneally every other day; tumor lysates
Protocol: as §3, §4

II-8 = test: PC3 prostate cancer xenograft, intratumoral II-8 by multiplex immunoassay; format: in vivo, Mf1 nude mice; conditions: 5 or 15 mg/kg intraperitoneally every other day; tumor lysates
Protocol: as §3, §4

GRO-alpha = test: PC3 prostate cancer xenograft, intratumoral GRO-alpha by multiplex immunoassay; format: in vivo, Mf1 nude mice; conditions: 5 or 15 mg/kg intraperitoneally every other day; tumor lysates
Protocol: as §3, §4

redMIF = target: T1, redMIF (Homo sapiens, UniProt P14174); test: Differential binding of anti-MIF antibodies to redMIF / unmodified recombinant MIF (Biacore surface plasmon resonance); conditions: reduced / unmodified MIF
T1 sequence (P14174 1-115): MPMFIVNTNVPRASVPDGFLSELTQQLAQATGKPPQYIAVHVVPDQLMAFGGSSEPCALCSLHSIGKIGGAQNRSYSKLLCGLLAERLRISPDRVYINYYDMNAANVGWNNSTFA
Protocol: (§5) The anti-oxMIF antibodies used in this invention are able to discriminate between ox and red MIF, which are generated by mild oxidation or reduction, respectively. The anti-oxMIF antibodies are useful to specifically detect oxMIF. Discrimination between these conformers is assessed by ELISA or surface plasmon resonance. Both techniques can be performed as well known to a person skilled in the art and as described below.
(§6) The antibodies were coated on a CM5 (=carboxymethylated dextran) chip and recombinant MIF protein, pre-incubated with 0.2% Proclin®300, were injected. (Proclin®300 consists of oxidative isothiazolones that stabilize the oxMIF structure).
(§7) A preferred method for the determination of binding is surface plasmon resonance of an antibody to e.g. rec. […] “Binding” and “specific binding” is used interchangeably here to denote the above.

oxMIF = target: T2, oxMIF (Homo sapiens, UniProt P14174); test: Differential binding of anti-MIF antibodies to oxMIF (ELISA or Biacore surface plasmon resonance); conditions: oxMIF (oxidized MIF)
T2 sequence (P14174 1-115): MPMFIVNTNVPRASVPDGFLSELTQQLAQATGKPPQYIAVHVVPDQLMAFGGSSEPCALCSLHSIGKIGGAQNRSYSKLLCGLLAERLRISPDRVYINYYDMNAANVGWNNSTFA
Protocol: as §5, §6, §7

B1: RAM0: anti-MIF (oxMIF) antibody, heavy chain SEQ ID NO: 9, light chain SEQ ID NO: 10; DSM 25864 and DSM 25863 (antibody)
heavy: EVQLLESGGGLVQPGGSLRLSCAASGFTFSWYAMDWVRQAPGKGLEWVSGIYPSGGRTKYADSVKGRFTISRDNSKNTLYLQMNSLRAEDTAVYYCARVNVIAVAGTGYYYYGMDVWGQGTTVTVSSASTKGPSVFPLAPSSKSTSGGTAALGCLVKDYFPEPVTVSWNSGALTSGVHTFPAVLQSSGLYSLSSVVTVPSSSLGTQTYICNVNHKPSNTKVDKRV[not shown - human IgG1 Fc]
light: DIQMTQSPGTLSLSPGERATLSCRASQGVSSSSLAWYQQKPGQAPRLLIYGTSSRATGIPDRFSGSASGTDFTLTISRLQPEDFAVYYCQQYGRSLTFGGGTKVEIKRTVAAPSVFIFPPSDEQLKSGTASVVCLLNNFYPREAKVQWKVDNALQSGNSQESVTEQDSKDSTYSLSSTLTLSKADYEKHKVYACEVTHQGLSSPVTKSFNRGEC
modifications: RAM0hc; RAM0lc
[1]
  luciferase activity (total flux) of tumors: reduction in luciferase activity
AKT
  phosphorylation of AKT: reduced the phosphorylation
ERK1/2
  phosphorylation of ERK1/2: reduced the phosphorylation
[2]
  tumor volume: decreased
II-6
  intratumoral level of II-6: reduced
II-8
  intratumoral level of II-8: reduced
GRO-alpha
  intratumoral level of GRO-alpha: reduced
redMIF
  binding to redMIF: incapable of binding to redMIF
oxMIF
  binding to oxMIF: specifically bind to oxMIF
